According to patent US8992932B2 (Seattle Genetics, Inc., dated 2015):

T1: C4.4a on A549 cells transfected with the sequence for the complete C4.4a receptor (Homo sapiens)
T1 chain: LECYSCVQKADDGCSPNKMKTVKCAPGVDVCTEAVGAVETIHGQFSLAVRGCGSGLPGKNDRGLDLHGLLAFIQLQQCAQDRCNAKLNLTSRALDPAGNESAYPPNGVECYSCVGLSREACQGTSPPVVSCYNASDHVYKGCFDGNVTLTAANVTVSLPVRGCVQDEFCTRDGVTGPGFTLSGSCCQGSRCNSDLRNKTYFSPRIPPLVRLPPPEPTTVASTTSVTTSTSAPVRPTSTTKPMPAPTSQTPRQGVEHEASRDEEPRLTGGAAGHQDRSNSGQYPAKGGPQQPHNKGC

B1: ADC of Example 85 (antibody)
heavy: EVQLLESGGGLVQPGGSLRLSCAASGFTFSNAWMSWVRQAPGKGLEWVSYISSSGSTIYYADSVKGRFTISRDNSKNTLYLQMNSLRAEDTAVYYCAREGLWAFDYWGQGTLVTVSS[in this place human IgG1 constant region]
light: ESVLTQPPSVSGAPGQRVTISCTGSSSNIGAGYVVHWYQQLPGTAPKLLIYDNNKRPSGVPDRFSGSKSGTSASLAISGLRSEDEADYYCAAWDDRLNGPVFGGGTKLTVLGQPKAAPSVTLFPPSSEELQANKATLVCLISDFYPGAVTVAWKADSSPVKAGVETTTPSKQSNNKYAASSYLSLTPEQWKSHRSYSCQVTHEGSTVEKTVAPTECS
modifications: toxophore-linker on Cys (via S); toxophore-linker on Cys (via S)
B2: ADC of Example 118 (antibody)
heavy: B1 heavy
light: B1 light
modifications: toxophore-linker on Lys (via NH); toxophore-linker on Lys (via NH)
B3: ADC of Example 95 (antibody)
heavy: B1 heavy
light: B1 light
modifications: toxophore-linker on Cys (via S); toxophore-linker on Cys (via S)
B4: ADC of Example 104 (antibody)
heavy: B1 heavy
light: B1 light
modifications: toxophore-linker on Lys (via NH); toxophore-linker on Lys (via NH)
B5: ADC of Example 103 (antibody)
heavy: B1 heavy
light: B1 light
modifications: toxophore-linker on Lys (via NH); toxophore-linker on Lys (via NH)
B6: ADC of Example 105 (antibody)
heavy: B1 heavy
light: B1 light
modifications: toxophore-linker on Lys (via NH); toxophore-linker on Lys (via NH)
B7: ADC of Example 92 (antibody)
heavy: B1 heavy
light: B1 light
modifications: toxophore-linker on Cys (via S); toxophore-linker on Cys (via S)
B8: ADC of Example 112 (antibody)
heavy: B1 heavy
light: B1 light
modifications: toxophore-linker on Cys (via S); toxophore-linker on Cys (via S)
B9: ADC of Example 93 (antibody)
heavy: B1 heavy
light: B1 light
modifications: toxophore-linker on Cys (via S); toxophore-linker on Cys (via S)
B10: ADC of Example 102 (antibody)
heavy: B1 heavy
light: B1 light
modifications: toxophore-linker on Lys (via NH); toxophore-linker on Lys (via NH)
B11: ADC of Example 110 (antibody)
heavy: B1 heavy
light: B1 light
modifications: toxophore-linker on Cys (via S); toxophore-linker on Cys (via S)
B12: ADC of Example 108 (antibody)
heavy: B1 heavy
light: B1 light
modifications: toxophore-linker on Lys (via NH); toxophore-linker on Lys (via NH)
B13: ADC of Example 113 (antibody)
heavy: B1 heavy
light: B1 light
modifications: toxophore-linker on Cys (via S); toxophore-linker on Cys (via S)
B14: ADC of Example 98 (antibody)
heavy: B1 heavy
light: B1 light
modifications: toxophore-linker on Cys (via S); toxophore-linker on Cys (via S)
B15: ADC of Example 101 (antibody)
heavy: B1 heavy
light: B1 light
modifications: toxophore-linker on Lys (via NH); toxophore-linker on Lys (via NH)
B16: ADC of Example 96 (antibody)
heavy: B1 heavy
light: B1 light
modifications: toxophore-linker on Lys (via NH); toxophore-linker on Lys (via NH)
B17: ADC of Example 119 (antibody)
heavy: B1 heavy
light: B1 light
modifications: toxophore-linker on Cys (via S); toxophore-linker on Cys (via S)
B18: ADC of Example 109 (antibody)
heavy: B1 heavy
light: B1 light
modifications: toxophore-linker on Cys (via S); toxophore-linker on Cys (via S)
B19: ADC of Example 114 (antibody)
heavy: B1 heavy
light: B1 light
modifications: toxophore-linker on Cys (via S); toxophore-linker on Cys (via S)
B20: ADC of Example 100 (antibody)
heavy: B1 heavy
light: B1 light
modifications: toxophore-linker on Lys (via NH); toxophore-linker on Lys (via NH)
B21: ADC of Example 94 (antibody)
heavy: B1 heavy
light: B1 light
modifications: toxophore-linker on Cys (via S); toxophore-linker on Cys (via S)
B22: ADC of Example 107 (antibody)
heavy: B1 heavy
light: B1 light
modifications: toxophore-linker on Cys (via S); toxophore-linker on Cys (via S)
B23: ADC of Example 99 (antibody)
heavy: B1 heavy
light: B1 light
modifications: toxophore-linker on Lys (via NH); toxophore-linker on Lys (via NH)
B24: ADC of Example 97 (antibody)
heavy: B1 heavy
light: B1 light
modifications: toxophore-linker on Cys (via S); toxophore-linker on Cys (via S)
B25: ADC of Example 121 (antibody)
heavy: B1 heavy
light: B1 light
modifications: toxophore-linker on Lys (via NH); toxophore-linker on Lys (via NH)
B26: ADC of Example 86 (antibody)
heavy: B1 heavy
light: B1 light
modifications: toxophore-linker on Lys (via NH); toxophore-linker on Lys (via NH)
B27: ADC of Example 91 (antibody)
heavy: B1 heavy
light: B1 light
modifications: toxophore-linker on Lys (via NH); toxophore-linker on Lys (via NH)
B28: ADC of Example 120 (antibody)
heavy: B1 heavy
light: B1 light
modifications: toxophore-linker on Lys (via NH); toxophore-linker on Lys (via NH)
B29: ADC of Example 106 (antibody)
heavy: B1 heavy
light: B1 light
modifications: toxophore-linker on Lys (via NH); toxophore-linker on Lys (via NH)

Target: T1, C4.4a on A549 cells transfected with …
Test: cell-based or functional assay

Question: Which “IC50 [nM] A549: C4.4a (cell viability)” value does the source give for B1 here?
Answer: 0.14 nM

Question: B2 was tested. Which “IC50 [nM] A549: C4.4a (cell viability)” value did it give?
Answer: 0.29 nM

Question: For B3, which “IC50 [nM] A549: C4.4a (cell viability)” value is on record?
Answer: 0.036 nM

Question: How did the “IC50 [nM] A549: C4.4a (cell viability)” value turn out when B4 was run?
Answer: 3 nM

Question: B5 was tested. Which “IC50 [nM] A549: C4.4a (cell viability)” value did it give?
Answer: 0.2 nM

Question: B6 was tested. Which “IC50 [nM] A549: C4.4a (cell viability)” value did it give?
Answer: 0.03 nM

Question: With B7 as the binder, how does the “IC50 [nM] A549: C4.4a (cell viability)” value read?
Answer: 0.29 nM

Question: For B8, which “IC50 [nM] A549: C4.4a (cell viability)” value is on record?
Answer: 0.27 nM

Question: With B9 as the binder, how does the “IC50 [nM] A549: C4.4a (cell viability)” value read?
Answer: 0.04 nM

Question: With B10 as the binder, how does the “IC50 [nM] A549: C4.4a (cell viability)” value read?
Answer: 0.1 nM

Question: For B11, which “IC50 [nM] A549: C4.4a (cell viability)” value is on record?
Answer: 0.2 nM

Question: How did the “IC50 [nM] A549: C4.4a (cell viability)” value turn out when B12 was run?
Answer: 0.03 nM

Question: B13 was tested. Which “IC50 [nM] A549: C4.4a (cell viability)” value did it give?
Answer: 3 nM

Question: How did the “IC50 [nM] A549: C4.4a (cell viability)” value turn out when B14 was run?
Answer: 0.06 nM

Question: Which “IC50 [nM] A549: C4.4a (cell viability)” value does the source give for B15 here?
Answer: 0.3 nM

Question: B16 was tested. Which “IC50 [nM] A549: C4.4a (cell viability)” value did it give?
Answer: 0.018 nM

Question: With B17 as the binder, how does the “IC50 [nM] A549: C4.4a (cell viability)” value read?
Answer: 0.32 nM

Question: Which “IC50 [nM] A549: C4.4a (cell viability)” value does the source give for B18 here?
Answer: 1 nM

Question: With B19 as the binder, how does the “IC50 [nM] A549: C4.4a (cell viability)” value read?
Answer: 0.05 nM

Question: With B20 as the binder, how does the “IC50 [nM] A549: C4.4a (cell viability)” value read?
Answer: 0.1 nM

Question: With B21 as the binder, how does the “IC50 [nM] A549: C4.4a (cell viability)” value read?
Answer: 0.035 nM

Question: Which “IC50 [nM] A549: C4.4a (cell viability)” value does the source give for B22 here?
Answer: > 100 nM

Question: Which “IC50 [nM] A549: C4.4a (cell viability)” value does the source give for B23 here?
Answer: 0.1 nM

Question: How did the “IC50 [nM] A549: C4.4a (cell viability)” value turn out when B24 was run?
Answer: 0.062 nM

Question: B25 was tested. Which “IC50 [nM] A549: C4.4a (cell viability)” value did it give?
Answer: 0.03 nM

Question: With B26 as the binder, how does the “IC50 [nM] A549: C4.4a (cell viability)” value read?
Answer: 0.17 nM

Question: Which “IC50 [nM] A549: C4.4a (cell viability)” value does the source give for B27 here?
Answer: 0.15 nM

Question: With B28 as the binder, how does the “IC50 [nM] A549: C4.4a (cell viability)” value read?
Answer: 0.07 nM

Question: For B29, which “IC50 [nM] A549: C4.4a (cell viability)” value is on record?
Answer: 0.05 nM
